Assay results from paper PMC5575521, “Liver microsomal lipid enhances the activity and redox coupling of colocalized cytochrome P450 reductase‐cytochrome P450 3A4 in nanodiscs” (The Febs Journal, 2017).

Biological target: T1, NADPH-dependent cytochrome P450 oxidoreductase (CPR), full-length human, expressed from pPORh1 (human, UniProt P16435 1-677)
T1 construct: printed in three-letter code as Gly-Iso-Pro-Gly-Ser; human NADPH-dependent cytochrome P450 reductase (CPR), full length with its N-terminal membrane anchor domain; Expressed with an N-terminal OmpA leader for periplasmic membrane targeting; also called cytochrome P450 reductase; full-length CPR; source: E. coli C41(DE3), solubilised from membranes with Triton X-100, purified (2',5'-ADP Sepharose …)
T1 sequence: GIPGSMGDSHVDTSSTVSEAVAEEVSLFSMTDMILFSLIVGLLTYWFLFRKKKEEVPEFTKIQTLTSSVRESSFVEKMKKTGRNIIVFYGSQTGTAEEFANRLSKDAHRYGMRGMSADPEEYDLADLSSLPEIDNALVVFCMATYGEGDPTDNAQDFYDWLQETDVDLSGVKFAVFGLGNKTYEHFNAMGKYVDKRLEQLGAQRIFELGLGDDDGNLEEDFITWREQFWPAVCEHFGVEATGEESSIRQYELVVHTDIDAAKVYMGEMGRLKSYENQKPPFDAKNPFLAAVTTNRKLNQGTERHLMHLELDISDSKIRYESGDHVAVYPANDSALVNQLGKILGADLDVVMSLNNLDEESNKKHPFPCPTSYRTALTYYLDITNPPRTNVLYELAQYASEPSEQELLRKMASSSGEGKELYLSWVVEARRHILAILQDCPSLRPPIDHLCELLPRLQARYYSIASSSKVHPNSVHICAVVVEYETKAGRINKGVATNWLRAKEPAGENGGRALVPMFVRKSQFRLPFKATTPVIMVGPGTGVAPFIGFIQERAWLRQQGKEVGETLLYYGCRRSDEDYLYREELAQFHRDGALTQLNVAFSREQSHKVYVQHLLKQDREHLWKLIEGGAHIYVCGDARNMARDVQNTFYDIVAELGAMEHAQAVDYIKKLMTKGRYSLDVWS
Assay: pull-down + SEC; CPR and CYP3A4 premixed 30-60 min at room temperature, then assembled with MSP1E3D1 (His-tag removed) and lipid into nanodiscs; Ni-affinity enrichment via the C-terminal His-tag of CYP3A4, then gel filtration; fractions resolved by SDS/PAGE
Conditions: both partners purified

- binding result: binds
B1: cytochrome P450 3A4 (CYP3A4), human, C-terminally His-tagged, expressed from pB84 (enzyme, UniProt P08684 1-503, looked up)
chain: MALIPDLAMETWLLLAVSLVLLYLYGTHSHGLFKKLGIPGPTPLPFLGNILSYHKGFCMFDMECHKKYGKVWGFYDGQQPVLAITDPDMIKTVLVKECYSVFTNRRPFGPVGFMKSAISIAEDEEWKRLRSLLSPTFTSGKLKEMVPIIAQYGDVLVRNLRREAETGKPVTLKDVFGAYSMDVITSTSFGVNIDSLNNPQDPFVENTKKLLRFDFLDPFFLSITVFPFLIPILEVLNICVFPREVTNFLRKSVKRMKESRLEDTQKHRVDFLQLMIDSQNSKETESHKALSDLELVAQSIIFIFAGYETTSSVLSFIMYELATHPDVQQKLQEEIDAVLPNKAPPTYDTVLQMEYLDMVVNETLRLFPIAMRLERVCKKDVEINGMFIPKGVVVMIPSYALHRDPKYWTEPEKFLPERFSKKNKDNIDPYIYTPFGSGPRNCIGMRFALMNMKLALIRVLQNFSFKPCKETQIPLKLSLGGLLQPEKPVVLKVESRDGTVSGA
notes: human cytochrome P450 3A4 with its own N-terminal membrane anchor domain; expressed with an OmpA leader that is cleaved off during membrane targeting; source: E. coli K12 JM109, solubilised with CHAPS, purified (Ni-NTA agarose); not shown: His-tag, C-terminal, kept
